Measurements taken from PubChem BioAssay AID360 (National Center for Advancing Translational Sciences (NCATS), 2006).
The campaign covered roughly 48,000 compounds. About 550 (1.1%) were called active. About 4% were inconclusive and are not listed. No stated cut-off is given here; in the data, active means potency below about 15 µM; inconclusive means mostly about 16 µM to 33 µM; inactive means weaker than that. Some of the results follow.

biological target: Lysosomal acid glucosylceramidase (Homo sapiens) (UniProt P04062); assay: Glucocerebrosidase; details: purified enzyme, resorufin glucoside fluorescence (screen aimed at inhibitors), 20 min;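 further: the screen sought inhibitors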
In short: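 Wild-type enzyme at 0.2 nM final in 50mM citric acid/KH2PO4, 10mM sodium taurocholate, 0.01% tween-20, pH 5.9, with resorufin beta-D-glucopyranoside at 30 uM final. Compounds titrated, 20 min at RT, red fluorescence read; AC50 from titration.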
Potency means the concentration at half of the fitted maximal effect.

UniProt P04062, sequence (P04062 whole entry, looked up): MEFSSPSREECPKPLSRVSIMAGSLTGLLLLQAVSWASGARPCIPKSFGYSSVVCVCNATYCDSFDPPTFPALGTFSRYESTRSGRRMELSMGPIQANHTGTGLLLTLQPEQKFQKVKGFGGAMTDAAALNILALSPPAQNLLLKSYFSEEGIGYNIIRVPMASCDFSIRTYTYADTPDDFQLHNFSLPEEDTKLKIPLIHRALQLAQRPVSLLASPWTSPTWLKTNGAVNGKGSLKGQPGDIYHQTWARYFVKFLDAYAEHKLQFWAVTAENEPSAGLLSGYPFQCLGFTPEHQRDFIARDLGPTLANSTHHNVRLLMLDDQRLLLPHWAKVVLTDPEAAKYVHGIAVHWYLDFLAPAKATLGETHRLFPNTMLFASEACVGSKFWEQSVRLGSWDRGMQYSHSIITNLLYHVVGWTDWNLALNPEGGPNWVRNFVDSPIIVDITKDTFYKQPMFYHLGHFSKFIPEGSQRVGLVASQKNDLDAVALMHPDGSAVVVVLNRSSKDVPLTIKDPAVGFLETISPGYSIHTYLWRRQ

| SMILES | Potency |
| --- | --- |
| Cc1csc(SCC(=O)N2CCCC2)n1 | inactive: > 76.9 µM |
| Cc1occc1C(=O)N1CCN(S(C)(=O)=O)CC1 | inactive: > 76.9 µM |
| CC(=O)N(Cc1ccccc1)c1ncc2c(n1)c(=O)c(C#N)c1ccccn12 | inactive: > 76.9 µM |
| O=C(Nc1ccc(NC(=O)C2CC2)nc1)c1cccc(F)c1 | inactive: > 76.9 µM |
| COc1ccc(-c2noc(CSc3nc4ccccc4c(=O)n3-c3ccccc3)n2)cc1OC | inactive: > 76.9 µM |
| CCOC(=O)c1c(NC(=O)CN2CCOCC2)sc2c1CCCC2 | inactive: > 76.9 µM |
| O=C(CSc1nnc(-c2ccco2)n1Cc1ccco1)NCc1cccs1 | inactive: > 76.9 µM |
| Cc1ccc(-c2cc(C(=O)Nc3c(C)n(C)n(-c4ccccc4)c3=O)[nH]n2)c(O)c1 | inactive: > 76.9 µM |
| COc1ccc(OC)c(S(=O)(=O)Nc2ccc3oc4c(c3c2)C(=O)CCC4)c1 | inactive: > 76.9 µM |
| Cc1cc(NC(=O)C2C3C(=O)N(CCC(C)C)C(C(=O)NCc4ccccc4)C34C=CC2(C)O4)no1 (stereo unspecified) | inactive: > 76.9 µM |
| Cc1ccc(-n2nc(C)c3c2OC(N)=C(C#N)C3c2ccc(F)cc2)cc1 (stereo unspecified) | inactive: > 76.9 µM |
| CCOC(=O)Cc1csc(NC(=O)CSc2nnc(-c3ccc(C)cc3)o2)n1 | inactive: > 76.9 µM |
| CC(C)CC(c1nnnn1C(C)(C)C)N1CCN(C2CCCC2)CC1 (stereo unspecified) | inactive: > 76.9 µM |
| O=C(CSc1nc(-c2ccco2)cc(C(F)(F)F)n1)N1CCCc2ccccc21 | inactive: > 76.9 µM |
| O=S(=O)(N1CCOCC1)n1c(Cc2ccccc2)nc2ccccc21 | inactive: > 76.9 µM |
| CCOC(=O)C1CCCN(C(=O)CCC(=O)Nc2ccc3nc(N4CCOCC4)cc(C)c3c2)C1 (stereo unspecified) | active: 2.59 µM |
| Cc1nc2nc(-c3ccccc3)cc(=O)n2[nH]1 | inactive: > 76.9 µM |
| COc1cc(NC(=O)C2CC(=O)NC3=C2C(=O)CC(C)(C)C3)c(OC)cc1Cl (stereo unspecified) | inactive: > 76.9 µM |
| Cc1c(C(=O)Nc2ccc(Cl)cn2)oc2ccccc12 | inactive: > 76.9 µM |
| CCOCCCNC(=O)C1CCN(S(=O)(=O)N(CC(C)C)CC(C)C)CC1 | inactive: > 76.9 µM |
| COCCN(C(=O)CCC(=O)Nc1ccccn1)C(C(=O)NC1CCCC1)c1ccc(OC)cc1 (stereo unspecified) | inactive: > 76.9 µM |
| CCCC(C)n1[nH]c(=O)c2c(C)cc(C)nc21 (stereo unspecified) | inactive: > 76.9 µM |
| Cc1cc(C)n2c(SCC(=O)Nc3cc(C)on3)nnc2n1 | inactive: > 76.9 µM |

| SMILES | Potency |
| --- | --- |
| NC(=O)C1(N2CCCCC2)CCN(c2nc(-c3ccccc3)cs2)CC1 | inactive: > 76.9 µM |
| COc1ccc(NC(=O)c2cc(C)on2)cc1OC | inactive: > 76.9 µM |
| NC(=O)CC(NC(=O)OCc1ccccc1)C(=O)O (stereo unspecified) | inactive: > 76.9 µM |
| Cc1sc2nc(SCc3nc4ccccc4[nH]3)n(Cc3ccco3)c(=O)c2c1C | inactive: > 76.9 µM |
| O=S(=O)(Nc1ccc2c(c1)nc1n2CCN(Cc2ccccc2)C1)c1ccc(F)cc1 | inactive |
| Cn1c(=O)cc(OCCCC(=O)NCc2ccccn2)c2ccccc21 | inactive: > 76.9 µM |
| COc1cccc(CN2CCN(C(=O)c3cccc4ccccc34)CC2)c1OC | inactive: > 76.9 µM |
| COC(=O)c1cn(CC(=O)NCc2cccs2)c2ccccc12 | inactive: > 76.9 µM |
| CC(=O)c1c(C)c[nH]c1C | inactive: > 76.9 µM |
| CCCn1c(SCC(=O)Nc2ccccc2-c2ccccc2)nnc1-c1ccoc1C | inactive: > 76.9 µM |
| CCn1c(SCC(=O)Nc2ccc3c(c2)OCO3)nnc1-c1ccccc1O | inactive: > 76.9 µM |
| CCc1nnc(NC(=O)Cc2ccc(OCc3c(C)noc3C)cc2)s1 | inactive: > 76.9 µM |
| O=C(CN1CCOCC1)NC1CC2CCC1C2 (stereo unspecified) | inactive: > 76.9 µM |
| Cc1ccccc1OCC(=O)OC(C)CN1CCN(C)CC1 (stereo unspecified) | inactive: > 76.9 µM |
| CCC(=O)c1ccc(OCC(O)CN2CCN(S(=O)(=O)N3CCCCC3)CC2)cc1 (stereo unspecified) | inactive: > 76.9 µM |
| COc1ccc2c(c1)N1CCN=C1N2C | inactive: > 76.9 µM |
| O=C(C1CCN(C2CC(=O)N(c3cccc(Cl)c3)C2=O)CC1)N1CCCCCC1 (stereo unspecified) | inactive: > 76.9 µM |
| O=C(CN1C(=O)COc2ccccc21)NCCCN1CCc2ccccc2C1 | inactive: > 76.9 µM |
| NC(=O)c1nn(-c2ccccc2)nc1N | inactive: > 76.9 µM |
| CC(C)CCNC(=O)CN(C)S(=O)(=O)c1cccc2nsnc12 | inactive: > 76.9 µM |
| CCCn1c(SCC(=O)N2CCCC2)nc2c1c(=O)n(C)c(=O)n2C | inactive: > 76.9 µM |
| CCOC(=O)Cc1c(C)c2c(C)[nH]nc2oc1=O | inactive: > 76.9 µM |
| Cn1c(=O)c2c(nc(CN3CCOCC3)n2CCN2CCOCC2)n(C)c1=O | inactive: > 76.9 µM |

| SMILES | Potency |
| --- | --- |
| N#Cc1nc(-c2ccc(OCc3ccccc3)cc2)oc1NCc1ccco1 | inactive: > 76.9 µM |
| CCOc1ccccc1N1CC(C(=O)Nc2ccccc2N2CCOCC2)CC1=O (stereo unspecified) | inactive: > 76.9 µM |
| COc1ccc(-c2nc(C#N)c(NCC3CCCO3)o2)cc1OC (stereo unspecified) | inactive: > 76.9 µM |
| O=C(O)C1C2C=CC(O2)C1C(=O)NCc1ccc2c(c1)OCO2 (stereo unspecified) | inactive: > 76.9 µM |
| O=C(Nc1ccc2c(c1)OCO2)c1cccc(Cl)c1 | inactive: > 76.9 µM |
| Clc1ccccc1Cn1nnc2c(NCC3CC3)ncnc21 | inactive: > 76.9 µM |
| C#CCn1cnc2c(cnn2-c2ccc(C)c(C)c2)c1=O | active: 15 µM |
| CCn1c(CCC(=O)Nc2cc(F)ccc2C)nc2cc(S(=O)(=O)N(C)C)ccc21 | inactive: > 76.9 µM |
| CCN1C(=O)c2ccc(C(=O)Nc3nccs3)cc2C1=O | inactive: > 76.9 µM |
| O=S(=O)(NC1=NCCCCC1)c1cccs1 | inactive: > 76.9 µM |
| CCOCCCNC(=O)CN1CCN(c2ccc(F)cc2)CC1 | inactive: > 76.9 µM |
| CCOC(=O)N1CCC(Nc2c(-c3ccc(C)cc3)c(=O)c2=O)CC1 | inactive: > 76.9 µM |
| COc1ccc(-n2c(SCC(=O)Nc3ccc(C(=O)O)cc3)nnc2-c2cccs2)cc1 | inactive: > 76.9 µM |
| CCOc1ncccc1C(=O)OCC(=O)N1CC(=O)Nc2ccccc21 | inactive: > 76.9 µM |
| COC(=O)c1ccc2c(c1)NC(=O)C(N1CCOCC1)S2 (stereo unspecified) | inactive: > 76.9 µM |
| COc1ccccc1OCC(=O)OCC(=O)Nc1ncc(Cl)cc1Cl | inactive: > 76.9 µM |
| Cc1nc(C)c(C(=O)C2=C(O)C(=O)N(CCN3CCOCC3)C2c2cccs2)s1 (stereo unspecified) | inactive: > 76.9 µM |
| COCCOC(=O)c1c(C)oc2ccc(O)c(CN3CCC(C)CC3)c12 | inactive: > 76.9 µM |
| Cc1ccc(-c2nnc3sc(-c4ccc5c(c4)OCCO5)nn23)cc1 | inactive: > 76.9 µM |
| CCCC(=O)Nc1cccc2c1CCCC2 | inactive: > 76.9 µM |
| Cc1ccc(C(=O)N2CCN(c3ccc(Cl)cc3)CC2)cc1 | inactive: > 76.9 µM |
| Cc1cc(C)nc(Nc2nc(C)c3cc4c(cc3n2)OCO4)n1 | inactive: > 76.9 µM |
| O=C(c1cccc(F)c1)N1CCCC(C(=O)N2CCCC2)C1 (stereo unspecified) | inactive: > 76.9 µM |

| SMILES | Potency |
| --- | --- |
| CCOc1ccc2[nH]c(O)c(NC(C)=O)c2c1 | inactive: > 76.9 µM |
| O=C(CSc1nc2ccccc2c(=O)n1Cc1ccco1)N1CCN(c2ccccc2)CC1 | inactive: > 76.9 µM |
| CSc1ccc(N2C(=O)NC3(CCCCC3)C2=O)cc1 | inactive: > 76.9 µM |
| N#CC1=C(N)Oc2c(oc(CO)cc2=O)C1c1cccs1 (stereo unspecified) | inactive: > 76.9 µM |
| CC(=O)N1CCN(C(=O)CCc2nc3sc4c(c3c(=O)[nH]2)CCCC4)CC1 | inactive: > 76.9 µM |
| CCOC(=O)N1CCN(C(=O)c2cn(CC)c3ccc(S(=O)(=O)N4CCCC4)cc3c2=O)CC1 | inactive: > 76.9 µM |
| CCc1nnc(NC(=O)CCC(=O)N2CCCC2)s1 | inactive: > 76.9 µM |
| CC1CCN(S(=O)(=O)Cc2ccccc2Cl)CC1 | inactive: > 76.9 µM |
| CC(C)NC(=O)CCNC(=O)c1ccc(F)cc1 | inactive: > 76.9 µM |
| O=C(Nc1cccc(Cn2cccn2)c1)c1cc2c(s1)CCCC2 | inactive: > 76.9 µM |
| Cc1ccc2c(c1)[nH]c1c(N3CCN(Cc4ccc5c(c4)OCO5)CC3)ncnc12 | inactive: > 76.9 µM |
| Cc1sc(NC(=O)CSc2nnc(C)c(=O)[nH]2)c(C#N)c1C | inactive: > 76.9 µM |
| Cn1ncc(C#N)c1NC(=O)C1CC(c2c(F)cccc2Cl)=NO1 (stereo unspecified) | inactive: > 76.9 µM |
| O=C(c1cnn2c1NC(c1ccco1)CC2C(F)(F)F)N1CCN(c2cccc(Cl)c2)CC1 (stereo unspecified) | inactive: > 76.9 µM |
| CC1=C(C(=O)OC(C)C)C(C)NC(=O)N1 (stereo unspecified) | inactive: > 76.9 µM |
| O=C(Nc1ccccc1C(F)(F)F)C1CC(=O)N(c2ccccc2F)C1 (stereo unspecified) | inactive: > 76.9 µM |
| Cc1ccccc1CSc1nnc(-c2cccnc2)n1N | inactive: > 76.9 µM |
| NCc1ccc(-c2nc3ccccc3o2)cc1 | inactive: > 76.9 µM |
| CCc1ccc(NC(=O)N(CCN2CCOCC2)C2CCN(C(C)=O)CC2)cc1 | inactive: > 76.9 µM |
| CCCCCCn1c2c(c(=N)c3c1CCC3)CCC2 | inactive: > 76.9 µM |
| O=C(COC(=O)C1CCN(C(=O)c2ccc(Cl)cc2)CC1)c1ccco1 | inactive: > 76.9 µM |
| CCOc1ccccc1OCC(=O)Nc1ccc(S(=O)(=O)N(C)C)cc1 | inactive: > 76.9 µM |
